Several values for one entry are separate records, joined by “and”; a condition that tells them apart may be missing. Identical values can stand only once.

Data set [1] in a line: Hepatic microsomal stability. Type of data set: in vitro ADME. Particulars: 100 x Conc. at 30 min/Conc. at 0 min, mice microsomes.
In data set [2] the test system is J774 a.1 macrophage cell line. The data set can be described thus: cells. Particulars: Mus musculus, J774.A1, 120 h, MTT, 5 days. The method, then:
The IC50 was calculated from the dose response curve as the dose was inhibited the 50% of cell viability. The ratio between IC50 and MIC against M. bovis BCG was used to calculate the selectivity index (SI) of each compound as an estimate of the therapeutic window as shown in the following table.

Consider `CNCCOc1nn(-c2c(Cl)cc(Cl)cc2Cl)c(C(Cl)Cl)c1[N+](=O)[O-].Cl` [LX079, 2-((5-(Dichloromethyl)-4-nitro-1-(2,4,6-trichlorophenyl)-1H-pyrazol-3-yl)oxy)-N-methylethanaminium chloride], for which the “Stability (%)” value in data set [1] is 23.14% and 23.14 ± 2.01%. In addition, the 50% inhibitory concentration (IC50) (commonly the concentration needed to halve the response being measured) in data set [2] came to 2 µg/mL. For `CNCCOc1nn(-c2c(Cl)cc(C(F)(F)F)cc2Cl)c(C(Cl)Cl)c1[N+](=O)[O-].Cl` [Lx088, 2-((1-(2,6-Dichloro-4-(trifluoromethyl)phenyl)-5-(dichloromethyl)-4-nitro-1H-pyrazol-3-yl)oxy)-N-methylethanaminium chloride], in data set [2], the IC50 is 6 µg/mL. Turning to `CCNCCOc1nn(-c2c(Cl)cc(Cl)cc2Cl)c(C(Cl)Cl)c1[N+](=O)[O-].Cl` [Lx089, 2-((5-(Dichloromethyl)-4-nitro-1-(2,4,6-trichlorophenyl)-1H-pyrazol-3-yl)oxy)-N-ethylethanaminium chloride], in data set [2], the IC50 turned out to be 2 µg/mL.

The values above are taken from patent publication EP2829536A1, “4-Nitro-5-dichloromethylpyrazol derivatives for the treatment of infectious diseases” (priority 2013, dated 2015).
